The record followed here is the supplement of paper PMC11417369.

The list shows a part of the results.

In this assay the test system is PF3D7_0420300 AP2 domain 1 (GST-tagged). The experiment in a line: gcPBM binding intensity (ln(normalized median fluorescence intensity)); higher = stronger DNA binding. In a few lines:
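In this array assay, P. falciparum DNA-binding domains with a GST tag, expressed in E. coli, were applied for 1 h to primer-extended double-stranded 36-bp intergenic genomic probes and negative controls on an Agilent 4 × 180k array. Bound protein was visualised with Alexa488 anti-GST antibody at 488 nm. Binding intensity is the highest Masliner-normalised natural-log median intensity across replicate spots of either probe orientation.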
Consider “ATATATATATATTCCACACACACACCCAAAAAAAAA [CACACA_site3649]”, for which the “gcPBM binding intensity (ln)” value was found to be 9.7.
As to “TTTTATTTTTTATTTGCACACAATATGTAAAAAAAT [CACACA_site2927]”, the “gcPBM binding intensity (ln)” value was 9.18.
Consider “AATCATTTTATTATCCTAACAAAAAAAAAATATATT [CACACA_negctrl_site115]”, for which the “gcPBM binding intensity (ln)” value is 8.99.
For “ACGATGCATTAATCTGCACACCACAACAAAACGTTT [CACACA_site899]” the value was 9.31; for “ACAACGCGTTAAATGTGTACATATTTATAAGTATAT [XGTACX_site8777]”, 9.23; for “AGCTATGTATTCTACACACACATACAGACATATATA [CACACA_site3428]”, 9.89.
As for “TTTGCATTTCTTAATTGTACTTAAAAAAAAAATAAT [XGTACX_site758]”, the “gcPBM binding intensity (ln)” value came out at 8.78.
As for TATACCAATGAATGAGTGCAAAGAAGATAAGGAAAA, the figure is 9.43.
As for “AAGGTATTTATAACTACACACTTATTTATAACCTAA [CACACA_site6194]”, the figure is 9.34.
As for “ACTTATTGTGGTTTTGCATGTAGCATTTTTACATAC [TGCATGCA_site247]”, the figure is 9.65.
Consider “AATAAAATGAAATGAAATAAAAAAAAAAAAAAAATG [TGCATGCA_negctrl_site305]”, for which the “gcPBM binding intensity (ln)” value came out at 9.41.
With “TATATTATAAACATATGTACATATGTATAAATACAT [XGTACX_site722]”, the “gcPBM binding intensity (ln)” value stood at 9.19.
For “AAAAAAAAAAAAAAATTAAAGTAATGGAAAAAAAAA [CACACA_negctrl_site1666]” the value was 9.
Turning to “AACATATATATATACACACACATATATATATGAAAT [CACACA_site279]”, the “gcPBM binding intensity (ln)” value stood at 9.97.
For “ATTATTAATATTATATGTACGCACTATATCAAGGCT [XGTACX_site6468]” the value was 9.16; for “TATACATACATACATACACACACACCGATATATACA [CACACA_site8184]”, 10.2; for “TTCCAAAAAATTATTACACACATATGGGCACATATA [CACACA_site679]”, 9.48.
As for “ACAAAAAAACATGAAACACACACAAATATATATATA [CACACA_site8566]”, the figure is 10; as for “TGCCTATTTTGGATGTGTACACATATATATATTTAT [XGTACX_site6741]”, 9.57.
Consider “ACGCTAATTATGTGCACACAAATTAAAGGTCTACAA [CACACA_site147]”, for which the “gcPBM binding intensity (ln)” value amounted to 9.4.
As for “AATGTTATTTGTTTATCACACATTAGGATGTTTATA [CACACA_site5710]”, the figure is 9.43.
With “ATTCTATAATATAAGAGTACTTATTTTTTTTAATTT [XGTACX_site7671]”, the “gcPBM binding intensity (ln)” value is 9.02.
As for “TATAAAATTAAACAAAGTACTAGACATATATATAGA [XGTACX_site3247]”, the figure is 9.44; as for “AAAAAAAAAAAAAACACACACACAAGAGTATATAAA [CACACA_site6580]”, 9.99; as for “TTATATATTTTTTTTTGTACATAGAAGAGGGAAAAA [XGTACX_site2178]”, 8.95.
For “ATGAATTTATTACATTGTACATTTTTAAAAGGTTAC [XGTACX_site124]” the value was 9.11.
For “TTCCCTCCTCAAAATTGTACTAGAATAATAACATAA [XGTACX_site8765]” the value was 8.91; for “TACACGCTAAAATACACACACACACCCACATATATA [CACACA_site4153]”, 10.2; for “TTTTTTAAACATATTATGTGTATTACATAGTTATGC [XGTACX_negctrl_site596]”, 8.93.
Take “TTATTATATTAAAATTGTACTTGCTTTCAATATGAT [XGTACX_site5305]”: the “gcPBM binding intensity (ln)” value is 9.12.
Take “TTATAATATTATAAAATAACATTTATTAATTATTGG [CACACA_negctrl_site1794]”: the “gcPBM binding intensity (ln)” value came to 8.87.
As for “TAAACGTTATATAGTGCATGTCATATTTTATTATAT [TGCATGCA_site935]”, the figure is 9.35.
For “ATCTTTGGAAATTTATGTACTTATATTTATATTGTA [XGTACX_site6606]” the value was 9.37; for “ATTTCTAGTTTAAGATGTACTTTAATAAAAATTATT [XGTACX_site4820]”, 9.03.
As for “AAATATCAACAAAAATGTACAAATGTAAAAGAATAT [XGTACX_site4676]”, the figure is 9.64.
“AGGTTAAAAATAAATACACACATTTTATGTCTGTAT [CACACA_site996]”: the “gcPBM binding intensity (ln)” value came out at 9.36.
For “TTTTTTTTTTAATAAAGTACATATAAATTACCTAAT [XGTACX_site4434]” the value was 8.85; for “ACTATACAGTTATACACACACATATATATATAATAT [CACACA_site310]”, 9.9; for “AAATGAGTATTCATATGTACACAAATAAAAAATTAA [XGTACX_site2968]”, 9.13.
As to “ATGGAAGGAAACAATAAAAAAAAAAAAAAATATATA [XGTACX_negctrl_site594]”, the “gcPBM binding intensity (ln)” value came to 9.23.
For the sequence “AATGACAACCTTGTCACACATATATATATATATATA [CACACA_site5977]”, the “gcPBM binding intensity (ln)” value was found to be 9.17.
As for “TTTTTTATTTGACAAGCACACACTTAAATATATATA [CACACA_site3358]”, the figure is 9.31.
CATTTAAAGGACAAGCTGCACTTACAAAATAAAAAA: the “gcPBM binding intensity (ln)” value is 8.97.
As for “ATATTATAATTAAAACGTACGTATTTATGAATTCAT [XGTACX_site1047]”, the figure is 9.16.
For the sequence “TACATAAATTAAAACACACACACACTAAAAAAAAAA [CACACA_site7130]”, the “gcPBM binding intensity (ln)” value turned out to be 10.1.
For “TATTAATTAAACCATACACACATAATTTTTTTATAA [CACACA_site843]” the value was 9.47; for “GTTAATATTTACTACACACACTTAAAATATGTATAT [CACACA_site4194]”, 9.74.
As for “TTTTCATTTTTCTTTACACACATATATTTATTTATA [CACACA_site7119]”, the figure is 9.73; as for “AAAAGAATATAAAGATACATTGTGATATGGGACAAA [CACACA_negctrl_site405]”, 9.46.
As for “GAAATAATTTCATATACACACATATACATACATACA [CACACA_site1358]”, the “gcPBM binding intensity (ln)” value was 9.6.
As for TATATATATATTGAAGTGCAAAATACTGTACGTAAT, the “gcPBM binding intensity (ln)” value is 9.4.
In the case of “TTAATTCTACTTATTACACACATATTAATCAAAAAT [CACACA_site1478]”, the “gcPBM binding intensity (ln)” value was 9.35.
In the case of “TATATATATATAAACAGTACACAAATTGTAAATAAA [XGTACX_site8268]”, the “gcPBM binding intensity (ln)” value turned out to be 9.55.
As to “TATATATATATATATATTGAAATTTATAATAATATT [TGCATGCA_negctrl_site407]”, the “gcPBM binding intensity (ln)” value came out at 8.94.
For “AAATATTTATACTATACACACCCAATTTAAAAAAAA [CACACA_site6669]”, the “gcPBM binding intensity (ln)” value came to 9.58.
On to “AACATAGAAACGTTATGTACATATTGAAGGATATTA [XGTACX_site6015]”, for which the “gcPBM binding intensity (ln)” value is 9.41.
As for “ATTTTTTTATGTACACAAAAAAAAAAAAAAATTTAA [CACACA_negctrl_site1028]”, the figure is 8.73.
